# Data as given in the supplement of paper PMC8728848.
# Some of the results follow.
# B1: GS7807H-bfa-490-18-490 (Bacteroides fragilis) (protein)
# chain: GNLEEMNIDPDNATQTHPKLLLTQICMNAFKRGTDGMYATKKVIQADGESADQYYKWTRGSFGYYDNLRNVQKMGEEAERVNAPVYTALTKFFRAYYFYELTLRFGDIPYSQALKGEKEEIYTPEYDAQEDVFAGILQELREADEILANDASVIDGDIIYNGNSTQWRKLINSFRLKVLMTLSNHTTVGNINIASEFKNIATNSPLMNSLADNGQLVYLDQQGNRYPQFNAQWSGYYMDDTFIQRMRERRDPRLFIFSAQTNKGKTEGKPIDDFSSYEGGDPAAPYSDAIIKVSEGTISPINDRFRTDPIVEPTMLMGYAELQQILAEAVVRGWISGNAQTYYEKGIRASFSFYETHAKDYAGYLNENAVAQYLKEPLVDFTQASGTEEQIERIIMQKYLVTFYQGNWDSFYEQLRTGYPDFRRPAGTEIPKRWMYPQGEYDNNGTNVETAITRQFGAGNDKINQATWWQKKS
# Assays:
# Experiment in all cases: glycan array binding signal (z-score within array); higher = stronger binding
# Settings in all cases: glycan notation: IUPAC condensed, linker removed
# [1] = target: Fuc(a1-3)[Gal3S(b1-4)]GlcNAc6S
# How it was run: (§1)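 The binding signal is a Z-score computed within each array and averaged over linkers. Arrays of the same protein sequence at different concentrations or buffers were also averaged together. Data originate from 3228 arrays in the Consortium for Functional Glycomics database, kept only where the protein sequence was available.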
# [2] = target: Fuc(a1-3)[GalNAc(b1-4)]GlcNAc
# How it was run: as §1
# [3] = target: Fuc(a1-3)[GalNAc(b1-4)]GlcNAc6S
# How it was run: as §1
# Fuc(a1-4)GlcNAc = target: Fuc(a1-4)GlcNAc
# How it was run: as §1
# Fuc(b1-3)GlcNAc = target: Fuc(b1-3)GlcNAc
# How it was run: as §1
# Gal(a1-2)Gal = target: Gal(a1-2)Gal
# How it was run: as §1
# Gal(a1-3)Gal = target: Gal(a1-3)Gal
# How it was run: as §1
# Gal(a1-3)Gal(b1-3)GlcNAc = target: Gal(a1-3)Gal(b1-3)GlcNAc
# How it was run: as §1
# [4] = target: Gal(a1-3)Gal(b1-3)GlcNAc(b1-2)Man
# How it was run: as §1
# [5] = target: Gal(a1-3)Gal(b1-3)GlcNAc(b1-2)Man(a1-3)[Gal(a1-3)Gal(b1-3)GlcNAc(b1-2)Man(a1-6)]Man(b1-4)GlcNAc(b1-4)GlcNAc
# How it was run: as §1
# [6] = target: Gal(a1-3)Gal(b1-3)GlcNAc(b1-3)GalNAc
# How it was run: as §1
# [7] = target: Gal(a1-3)Gal(b1-3)GlcNAc(b1-6)GalNAc
# How it was run: as §1
# [8] = target: Gal(a1-3)Gal(b1-3)[Fuc(a1-4)]GlcNAc(b1-2)Man(a1-3)[Gal(a1-3)Gal(b1-3)[Fuc(a1-4)]GlcNAc(b1-2)Man(a1-6)]Man(b1-4)GlcNAc(b1-4)GlcNAc
# How it was run: as §1
# Gal(a1-3)Gal(b1-4)Glc = target: Gal(a1-3)Gal(b1-4)Glc
# How it was run: as §1
# Gal(a1-3)Gal(b1-4)GlcNAc = target: Gal(a1-3)Gal(b1-4)GlcNAc
# How it was run: as §1
# [9] = target: Gal(a1-3)Gal(b1-4)GlcNAc(b1-2)Man
# How it was run: as §1
# [10] = target: Gal(a1-3)Gal(b1-4)GlcNAc(b1-2)Man(a1-3)[Gal(a1-3)Gal(b1-4)GlcNAc(b1-2)Man(a1-6)]Man(b1-4)GlcNAc(b1-4)GlcNAc
# How it was run: as §1
# [11] = target: Gal(a1-3)Gal(b1-4)GlcNAc(b1-3)GalNAc
# How it was run: as §1
# [12] = target: Gal(a1-3)Gal(b1-4)GlcNAc(b1-6)GalNAc
# How it was run: as §1
# [13] = target: Gal(a1-3)Gal(b1-4)[Fuc(a1-3)]GlcNAc
# How it was run: as §1
# [14] = target: Gal(a1-3)Gal(b1-4)[Fuc(a1-3)]GlcNAc(b1-2)Man(a1-3)[Gal(a1-3)Gal(b1-4)[Fuc(a1-3)]GlcNAc(b1-2)Man(a1-6)]Man(b1-4)GlcNAc(b1-4)GlcNAc
# How it was run: as §1
# Gal(a1-3)GalNAc = target: Gal(a1-3)GalNAc
# How it was run: as §1
# [15] = target: Gal(a1-3)[Gal(a1-4)]Gal(b1-4)GlcNAc
# How it was run: as §1
# [16] = target: Gal(a1-4)Gal(b1-3)GlcNAc(b1-2)Man(a1-3)[Gal(a1-4)Gal(b1-3)GlcNAc(b1-2)Man(a1-6)]Man(b1-4)GlcNAc(b1-4)GlcNAc
# How it was run: as §1
# Gal(a1-4)Gal(b1-4)Glc = target: Gal(a1-4)Gal(b1-4)Glc
# How it was run: as §1
# Gal(a1-4)Gal(b1-4)GlcNAc = target: Gal(a1-4)Gal(b1-4)GlcNAc
# How it was run: as §1
# [17] = target: Gal(a1-4)Gal(b1-4)GlcNAc(b1-2)Man(a1-3)[Gal(a1-4)Gal(b1-4)GlcNAc(b1-2)Man(a1-6)]Man(b1-4)GlcNAc(b1-4)GlcNAc
# How it was run: as §1
# [18] = target: Gal(a1-4)Gal(b1-4)GlcNAc(b1-3)Gal(b1-4)Glc
# How it was run: as §1
# Gal(a1-4)GlcNAc = target: Gal(a1-4)GlcNAc
# How it was run: as §1
# Gal(a1-6)Glc = target: Gal(a1-6)Glc
# How it was run: as §1
# Gal(b1-2)Gal = target: Gal(b1-2)Gal
# How it was run: as §1
# Gal(b1-3)Gal = target: Gal(b1-3)Gal
# How it was run: as §1
# Gal(b1-3)Gal(b1-4)GlcNAc = target: Gal(b1-3)Gal(b1-4)GlcNAc
# How it was run: as §1
# Gal(b1-3)GalNAc = target: Gal(b1-3)GalNAc
# How it was run: as §1
# [19] = target: Gal(b1-3)GalNAc(a1-3)[Fuc(a1-2)]Gal(b1-4)Glc
# How it was run: as §1
# [20] = target: Gal(b1-3)GalNAc(a1-3)[Fuc(a1-2)]Gal(b1-4)GlcNAc
# How it was run: as §1
# Gal(b1-3)GalNAc(b1-3)Gal = target: Gal(b1-3)GalNAc(b1-3)Gal
# How it was run: as §1
binder,measurement,setting,value
B1,glycan array binding signal (z-score),[1],-0.037
same,glycan array binding signal (z-score),[2],0.141
same,glycan array binding signal (z-score),[3],-0.224
same,glycan array binding signal (z-score),Fuc(a1-4)GlcNAc,-0.114
same,glycan array binding signal (z-score),Fuc(b1-3)GlcNAc,-0.102
same,glycan array binding signal (z-score),Gal(a1-2)Gal,-0.754
same,glycan array binding signal (z-score),Gal(a1-3)Gal,-0.011
same,glycan array binding signal (z-score),Gal(a1-3)Gal(b1-3)GlcNAc,0.074
same,glycan array binding signal (z-score),[4],-0.175
same,glycan array binding signal (z-score),[5],1.66
same,glycan array binding signal (z-score),[6],-0.576
same,glycan array binding signal (z-score),[7],0.244
same,glycan array binding signal (z-score),[8],0.346
same,glycan array binding signal (z-score),Gal(a1-3)Gal(b1-4)Glc,-0.168
same,glycan array binding signal (z-score),Gal(a1-3)Gal(b1-4)GlcNAc,-0.116
same,glycan array binding signal (z-score),[9],-0.183
same,glycan array binding signal (z-score),[10],0.546
same,glycan array binding signal (z-score),[11],1.17
same,glycan array binding signal (z-score),[12],-0.527
same,glycan array binding signal (z-score),[13],-0.127
same,glycan array binding signal (z-score),[14],1.36
same,glycan array binding signal (z-score),Gal(a1-3)GalNAc,-0.364
same,glycan array binding signal (z-score),[15],0.689
same,glycan array binding signal (z-score),[16],0.426
same,glycan array binding signal (z-score),Gal(a1-4)Gal(b1-4)Glc,0.193
same,glycan array binding signal (z-score),Gal(a1-4)Gal(b1-4)GlcNAc,0.003
same,glycan array binding signal (z-score),[17],6.27
same,glycan array binding signal (z-score),[18],-0.594
same,glycan array binding signal (z-score),Gal(a1-4)GlcNAc,-0.31
same,glycan array binding signal (z-score),Gal(a1-6)Glc,-0.313
same,glycan array binding signal (z-score),Gal(b1-2)Gal,0.045
same,glycan array binding signal (z-score),Gal(b1-3)Gal,-0.048
same,glycan array binding signal (z-score),Gal(b1-3)Gal(b1-4)GlcNAc,-0.396
same,glycan array binding signal (z-score),Gal(b1-3)GalNAc,-0.115
same,glycan array binding signal (z-score),[19],-0.672
same,glycan array binding signal (z-score),[20],0.516
same,glycan array binding signal (z-score),Gal(b1-3)GalNAc(b1-3)Gal,-0.623
